This is an account of results in PubChem BioAssay AID488969 (Vanderbilt High Throughput Screening Facility, 2010).

Over roughly 110,000 compounds, “z-score” has its median near -0.1; the highest 2% begin near 2. Some of the results follow. The source made the active and inactive calls.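 How the source made its calls: active means z-score in the third read window above 3 or below -3; inactive means the rest.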

The target in the test is Metabotropic glutamate receptor 8 (Rattus norvegicus) (UniProt P70579). Briefly: mGluR8 Gi/Go-coupled signaling modulation – cell-based, rat, thallium flux, HTS, primary screen (AID 488969). The conditions noted are these: HEK293 rat mGluR8, GIRK (G protein-gated inwardly rectifying potassium channel) thallium flux, FluoZin2; at 10 µM; stronger effect = higher value; submaximal glutamate (EC20) added with thallium.
Sequence of UniProt P70579 (P70579 whole entry, looked up): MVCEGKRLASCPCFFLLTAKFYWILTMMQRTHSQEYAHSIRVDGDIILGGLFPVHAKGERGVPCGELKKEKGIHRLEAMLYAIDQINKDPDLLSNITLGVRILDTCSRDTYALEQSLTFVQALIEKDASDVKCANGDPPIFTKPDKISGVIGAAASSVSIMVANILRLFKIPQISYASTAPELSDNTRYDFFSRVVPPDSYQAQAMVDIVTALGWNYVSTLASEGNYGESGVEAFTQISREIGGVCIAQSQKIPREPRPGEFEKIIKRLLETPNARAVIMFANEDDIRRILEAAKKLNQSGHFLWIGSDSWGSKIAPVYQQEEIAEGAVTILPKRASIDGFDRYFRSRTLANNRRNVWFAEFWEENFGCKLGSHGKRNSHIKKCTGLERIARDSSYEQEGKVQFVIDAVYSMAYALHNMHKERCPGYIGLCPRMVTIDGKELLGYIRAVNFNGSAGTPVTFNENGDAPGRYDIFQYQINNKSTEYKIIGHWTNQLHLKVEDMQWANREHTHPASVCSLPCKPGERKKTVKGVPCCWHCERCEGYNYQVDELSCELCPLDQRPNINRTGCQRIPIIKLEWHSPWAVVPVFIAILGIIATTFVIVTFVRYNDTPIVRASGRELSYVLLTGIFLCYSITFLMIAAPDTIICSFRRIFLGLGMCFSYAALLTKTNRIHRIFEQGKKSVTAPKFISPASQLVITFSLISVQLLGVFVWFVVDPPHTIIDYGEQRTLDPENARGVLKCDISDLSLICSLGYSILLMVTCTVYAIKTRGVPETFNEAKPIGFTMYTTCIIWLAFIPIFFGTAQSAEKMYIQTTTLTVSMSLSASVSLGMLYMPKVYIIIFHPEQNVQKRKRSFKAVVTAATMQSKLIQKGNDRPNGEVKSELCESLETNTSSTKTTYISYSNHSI
In the case of `NS(=O)(=O)c1ccc(CCNC(=O)c2cncc(Br)c2)cc1`, the z-score was 0.213.

In the case of `Cc1cc(NO)c(C(C)C)cc1N=O`, the z-score was -0.242. `O=C(N/C(=C\c1ccc(Br)cc1)c1nc2ccccc2[nH]1)c1ccco1` returned a z-score of 0.053.

In turn, `COc1ccc(NC(=O)Nc2ccccc2F)cc1` came in with a z-score of -0.113. `COc1ccccc1CNC(=O)C(CCSC)NS(=O)(=O)c1ccc2c(c1)oc(=O)n2C` (stereo unspecified) displayed a z-score of -0.0879. To `COc1ccc(/C(N)=N/OC(=O)c2cccc([N+](=O)[O-])c2C)cc1OC` belongs 0.671; to `Cc1ccc(NC(=O)N/C=C/c2ccccc2)cc1`, 0.0496; to `CC(C)NS(=O)(=O)c1ccc(NC(=O)C(C)Oc2ccc(C(=O)c3ccccc3)cc2)cc1` (stereo unspecified), 0.21.

Regarding `COc1ccc(C(=O)N2CCN(c3ccc(C)cc3)CC2)cc1OC`, the z-score is -0.296. `Cc1oc(C(C)(C)C)cc1C(=O)Nc1ccc2c(c1)OCCO2` had a z-score of -0.556. To `CC(C)(C)Nc1nc2nonc2nc1NC(C)(C)C` belongs -0.28; to `CCOC(=O)CN1C(=O)C(=O)c2cccc(C)c21`, -0.0105; to `COc1ccc(C(=O)c2c(C(F)(F)F)oc3c2C(=O)c2ccccc2C3=O)cc1OC`, -0.0606.

As to `CC(C)CC(=O)Nc1cc([N+](=O)[O-])ccc1Cl`, the z-score is -0.0735. `CCOC(=O)N1CCN(S(=O)(=O)c2ccc(C(=O)Nc3nnc(CC)o3)cc2)CC1` yielded a z-score of -0.247. In the case of `Cc1ccc(-c2c(C(=O)N(C)Cc3ccccc3)oc(=O)c3ccccc23)cc1` it was -0.139; in that of `Cc1ccc2c(Cl)cc(Cl)c(OCC(=O)OCC(=O)Nc3ccc(C#N)cc3)c2n1`, -0.255; in that of `O=c1c2sccc2n(Cc2cccc(F)c2)c(=O)n1-c1ccc(F)cc1`, -0.583. `O=C1CSC(c2ccccn2)N1c1ccc2ccccc2c1` (stereo unspecified) came in with a z-score of -0.0313. In the case of `CCOc1cc(/C=C2\SC(=N)N(c3nonc3N)C2=O)ccc1OCC(N)=O` it was -0.0536. In the case of `COc1ccc(S(=O)(=O)Cc2ccc(C(=O)N3CCN(c4cc(Cl)ccc4C)CC3)o2)cc1` it was 0.0669; in that of `COC(=O)C1CCN(S(=O)(=O)c2cn(C)c(=O)n(C)c2=O)CC1`, -0.112; in that of `N=C1C(c2nc3ccccc3[nH]2)=C(O)CN1c1ccc(F)cc1`, 0.0438. To `Cc1cccc(OCCNc2cc(N3CCOCC3)ccc2[N+](=O)[O-])c1` belongs -0.314; to `O=C(CSCCO)Nc1ccc(C23CC4CC(CC(C4)C2)C3)cc1`, -0.16. In turn, `CCc1nnc(NC(=O)CSc2nnc(-c3ccoc3C)n2-c2ccccc2)s1` showed a z-score of -0.156.

Turning to `CC(=O)c1ccc(N2CCN(C(=O)c3cc(-c4ccc5c(c4)OCO5)nc4ccccc34)CC2)cc1`, the z-score was -0.276. Consider `Cc1ccc(NC(=O)c2sccc2SCc2cccc(C(F)(F)F)c2)cc1`, for which the z-score is -0.19.

Compound `Cc1cc([N+](=O)[O-])cc2c1NC(=O)C2(O)N1CCCCCC1` (stereo unspecified) displayed a z-score of -0.0486. For the compound `Cc1cc(NC(=O)CSc2nc3c(c(=O)n(C)c(=O)n3C)n2C(C)C)no1`, the z-score is 0.206. `COc1cccc(C2=NOC(C(=O)Nc3ccc(C(C)=O)cc3)C2)c1` (stereo unspecified) yielded a z-score of -0.778. With `COc1cc(/C=N/NC(=O)COc2cccc(F)c2)ccc1OS(=O)(=O)c1ccc(C)cc1`, the z-score was -0.0387. `Cc1ccnc(NC(=S)NC(=O)c2ccco2)c1` came in with a z-score of 2. On to `CCOC(=O)CSC1=C(C#N)C(c2ccc(C)cc2)C(C(=O)OC)C(=O)N1` (stereo unspecified), for which the z-score is -0.932. On to `CCOc1ccc(S(=O)(=O)N(CC(=O)N/N=C/c2ccc(-c3ccc([N+](=O)[O-])cc3)o2)c2ccccc2)cc1`, for which the z-score is -0.0678. Compound `FC(F)(F)C(Oc1nc(Nc2ccc(Cl)cc2)nc(N2CCOCC2)n1)C(F)(F)F` registered a z-score of 0.0647.

In turn, `CCc1nnc(NC(=O)COC(=O)CN2C(=O)c3ccccc3C2=O)s1` registered a z-score of 1.33. Take `Nc1nc(N2CCOCC2)nc(N(c2ccccc2)c2ccccc2)n1`: the z-score was -0.39. As for `Cc1nn(C)c(C(=O)NCc2ccc(Cl)cc2)c1Cl`, the z-score was -0.28.

`CS(=O)(=O)N1CCN(c2ccc(NC(=O)CSc3ccc(Cl)cc3)cc2)CC1` gave a z-score of 0.105.

The compound `CN(c1ccccc1C(=O)Nc1ccc(S(=O)(=O)N2CCCCC2)cc1)S(C)(=O)=O` came in with a z-score of -0.137. On to `CCn1c(NC2CCCCC2)nc2ccccc21`, for which the z-score is 0.351. To `CCOC(=O)N1CCN(CCC(=O)Nc2ccc(C)cc2)CC1` belongs -0.64. With `N#CCSc1nc2scc(-c3cccs3)c2c(=O)n1CCc1ccccc1`, the z-score was found to be 0.726. Consider `CCCc1cc(C(=O)Cc2ccc(F)cc2)c(O)cc1O`, for which the z-score was -0.505.

Compound `COC(=O)C1=C(N)Oc2cc(C)n(CC3CCCO3)c(=O)c2C1c1ccc(Cl)c(Cl)c1` (stereo unspecified) registered a z-score of -1.34. On to `NC(=O)C(c1ccc(Cl)cc1Cl)c1ncc(C(F)(F)F)cc1Cl` (stereo unspecified), for which the z-score is -0.00615. To `Cc1cccc(N2C(=O)CC(N3CCN(C(=O)c4ccccc4)CC3)C2=O)c1` (stereo unspecified) belongs 0.683. `CCOC(=O)c1c(NC(=O)/C=C/c2ccc3c(c2)OCO3)sc(C)c1C` had a z-score of -0.151. The compound `C=CCN1C(=O)/C(=C2/C(=O)N(CC(=O)O)c3ccccc32)S/C1=N/c1nccs1` displayed a z-score of -0.107. In turn, `COc1ccc(-n2nnnc2S(=O)(=O)Cc2ccc(C(=O)O)cc2)cc1` gave a z-score of 0.0183. `C=CCn1c(-c2cccn(Cc3ccccc3)c2=O)n[nH]c1=S` yielded a z-score of -0.000758.

In turn, `O=C(/C(C=Nc1ccc(F)cc1)=C(/O)c1ccco1)C(F)(F)F` returned a z-score of -0.439.

The compound `c1coc(CNc2ncnc3c2oc2ccccc23)c1` registered a z-score of -0.21.

In turn, `O=C(Cn1c(C(F)(F)F)nc2ccccc21)N1CCCC1` returned a z-score of -0.117. In the case of `Cc1ccc(S(=O)(=O)N(C)C)cc1-n1c(SCC(=O)Nc2ccc(F)cc2Cl)nc2ccccc2c1=O` it was -0.461; in that of `O=C(NNC(=O)c1cccs1)c1ccc(Cl)c([N+](=O)[O-])c1`, -0.409; in that of `O=C1c2cnc3nc(SCc4ccc(Cl)cc4)nn3c2CC2c3ccccc3CCN12` (stereo unspecified), -1.6. `Cc1cccc(N2CN=c3s/c(=C\c4ccncc4)c(=O)n3C2)c1` displayed a z-score of -0.028.

As for `Cc1csc(SCC(=O)c2ccc(S(=O)(=O)N3CCOCC3)cc2)n1`, the z-score was -0.0519.

With `CCc1ccc2nc3sc(C(=O)Nc4nnc(CC)s4)c(N)c3cc2c1`, the z-score is -0.714. In the case of `COC(=O)C1C(O)=C(C=NCc2ccccc2)C(=O)CC1(C)C` (stereo unspecified), the z-score was -0.152. The compound `COC(=O)c1ccc(NC(=O)C2CC(=O)N(c3ccc(C)cc3)C2)cc1` (stereo unspecified) yielded a z-score of 0.761. To `CCOC(=O)C(CC)(CC)C(=O)/C=C/c1ccc(Br)cc1` belongs -0.128. The compound `CN1c2ccccc2C(C)(C)C12C=Nc1c(ccc3ccccc13)O2` (stereo unspecified) showed a z-score of -0.325. Compound `CCOc1cc2[nH]c(=S)n(CCN3CCC(C)CC3)c(=O)c2cc1OCC` gave a z-score of 0.809. The compound `CCOc1cccc(N2C(=O)CC(N3CCC(C(N)=O)(N4CCCCC4)CC3)C2=O)c1` (stereo unspecified) came in with a z-score of -0.0822. Regarding `CCCN1CCN(C(=O)CCCn2c(C)c3cnn(-c4ccccc4)c(=O)c3c2C)CC1`, the z-score is 0.112. On to `CC1CSc2ccccc2NC1=S` (stereo unspecified), for which the z-score is active: 3.72. `O=C(CNS(=O)(=O)c1ccc2ccccc2c1)OCC(=O)c1ccc(Br)s1` had a z-score of -0.175. On to `O=C(NCCO)C(c1ccccc1)c1ccccc1`, for which the z-score was determined as 0.56. For the compound `O=C(Nc1ccc2c(c1)OCCO2)c1ccc(Cl)c(S(=O)(=O)N2CCCCC2)c1`, the z-score is -0.285.

Turning to `O=C(COc1ccc(Cl)cc1Cl)NCCSc1ccc(Cl)cc1`, the z-score is -0.0359. In the case of `Cc1cc(C(=O)NCCCN2CCCC2=O)no1` it was -0.444; in that of `CN(C)S(=O)(=O)Oc1ccsc1C(=O)Nc1ccc(Cl)c(Cl)c1`, 0.0131; in that of `Nc1cccc(CCc2nc3cc4ccccc4cc3[nH]2)c1`, 0.696. To `Brc1ccc(-c2csc(N3CCC(c4ccccc4)C3)n2)cc1` (stereo unspecified) belongs -0.0671.

`Nc1ccc(C(=O)N/N=C2\CCCc3c2[nH]c2ccccc32)cc1` registered a z-score of -0.45. For the compound `CN(CCC#N)c1ncnc2scc(-c3ccccc3)c12`, the z-score stood at 0.579. Compound `Cc1cccc(N/C=C/c2onc(C)c2[N+](=O)[O-])c1` yielded a z-score of 1.43. The compound `COCCOC(=O)c1[nH]c2c(c1C)C(=O)CC(c1ccccc1)C2` (stereo unspecified) returned a z-score of -0.248. The compound `O=C1N/C(=C/c2ccc(N3CCCC3)cc2)C(=O)N1c1ccccc1` gave a z-score of -0.886. As to `O=C(COC(=O)/C=C/c1cccs1)NC(c1ccccc1)c1ccccc1`, the z-score is 0.053. In turn, `FC(F)Oc1ccc(NC(=S)NN2CCOCC2)cc1` had a z-score of -0.416. On to `CC(C)CCNC(=O)NC(=O)COC(=O)C1CCN(S(=O)(=O)c2ccccc2F)CC1`, for which the z-score is 0.03. In turn, `COc1ccc(/C=N/NC(=O)c2cc(-c3ccccc3OC(C)C)nc3ccccc23)cc1CN1CCOCC1` gave a z-score of -0.266. Compound `Cc1ccc(C)c(-n2nnnc2SCC(=O)Nc2c(C)n(C)n(-c3ccccc3)c2=O)c1` registered a z-score of 1.63. To `c1ccc(-c2cc(-c3nnc4n3N=C(c3ccc5ccccc5c3)CS4)[nH]n2)cc1` belongs -0.0208; to `Cc1cc(C)c(C#N)c(N2CCN(CCOc3ccc(Cl)cc3)CC2)n1`, -0.184; to `CCOC(=O)c1ccc(NC(=O)CC2C(=O)N(c3ccc(F)cc3)C(=O)N2CCC(C)C)cc1` (stereo unspecified), -0.0747. To `COC(=O)C1=C(C)N(Cc2ccco2)C(=O)/C1=C\c1ccc(N(C)C)cc1` belongs -0.621; to `CN(Cc1ccccc1)c1nc2c(c(=O)[nH]c(=O)n2C)n1CCCc1ccccc1`, -0.199. As for `COC(=O)c1ccc2c(=O)n(Cc3ccco3)c(SCC(=O)Nc3ccc(C)c(Cl)c3)nc2c1`, the z-score is 0.24. In the case of `COc1ccc(-c2nnc(SCC(=O)NCc3cccs3)n2C(C)C)cc1` it was -0.0199; in that of `COc1cc2c(cc1OC)CN(CC(=O)Nc1ccc(C)cc1)CC2`, 0.353. Take `Cc1c(Cl)cccc1NC(=O)CC1NCCNC1=O` (stereo unspecified): the z-score came out at 0.148. Consider `COc1ccc(CC(=O)OC(C)CN2CCCC2)cc1` (stereo unspecified), for which the z-score turned out to be 0.0072. To `COc1c(C)cccc1C(=O)NC(=S)Nc1ccc2c(c1)Cc1ccccc1-2` belongs -0.0787.

`O=C(Cn1ncc2c(=O)oc3ccccc3c21)NCC1CCCO1` (stereo unspecified) gave a z-score of -0.106. The compound `O=C(Nc1cc(Cl)cc(Cl)c1)C(NCCO)c1ccccc1` (stereo unspecified) gave a z-score of 0.0494.

As to `O=C(NC(=S)Nc1ccc(N2CCOCC2)c(Cl)c1)c1sc2ccccc2c1Cl`, the z-score amounted to 0.295. On to `COc1ccc(OC)c(-c2cc(C(=O)Nc3cccc(Cl)c3)no2)c1`, for which the z-score was 0.191.

In turn, `O=C(N/N=C/c1ccccc1)c1[nH]c2ccc(Br)cc2c1-c1ccccc1` showed a z-score of -0.741.

In the case of `O=C(NC(NC(=O)c1ccccc1)C(=O)c1ccccc1)c1ccccc1`, the z-score was -0.143. In the case of `Cc1ccc(SCC(=O)NC(=O)NCc2ccco2)c(C)c1` it was -0.129.

Turning to `Cc1cc(NC(=O)Nc2ccccc2)n(-c2ccccc2)n1`, the z-score was active: 10.5.
